The supplement of paper PMC4466236
Whole data set: some 33,000 sequences, median “E-score (dimensionless, -0.5 to 0.5)” near -0.058, cut for the highest 2% near 0.35. The list shows a part of the results.

test system: MvaT; assay: PBM 8-mer E-score (mean of HK and ME arrays) (E-score (dimensionless, -0.5 to 0.5)); higher = stronger relative binding preference; most listed sequences are background and not binding sites
Experimental: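 Protein binding microarray: GST-tagged full-length MvaT (P. aeruginosa PAO1) bound to two universal double-stranded 60-mer arrays (ME and HK), each with a constant 25-mer primer and a variable 35-mer region covering all 8-mers. The 8-mer E-score (rank-based, range -0.5 to 0.5, >0.45 = specific binding) is the mean of the two arrays.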

Row | Sequence | PBM 8-mer E-score
1 | GAATCTTA | 0.0997
2 | ATAAGTGC | 0.178
3 | GTCTTACA | 0.0145
4 | ACAGCTTC | -0.159
5 | GTGGCTGA | -0.0813
6 | GTAGGGAA | 0.0135
7 | AGCGACCA | -0.13
8 | CTCTGAAA | 0.0466
9 | ATTAAGCC | 0.138
10 | CCGCCGAC | -0.206
11 | GCAAATGC | -0.0563
12 | ATCGAATC | -0.0636
13 | AATTAGGT | 0.318
14 | CGGACGTA | 0.00838
15 | CGTTAGTC | 0.0653
16 | ATCTCCCG | -0.209
17 | ACTAGGAA | 0.0464
18 | AAACGCGG | -0.0874
19 | ATGGCTAA | 0.0518
20 | ATAGCTAA | 0.0897
21 | CTCTACAG | -0.15
22 | CAGTTCTA | 0.0495
23 | AAGATTCT | -0.0458
24 | GGATGTAC | -0.0457

Row | Sequence | PBM 8-mer E-score
25 | GTTCACGA | -0.0812
26 | GCATTCGC | 0.00449
27 | AATGATCA | 0.115
28 | AACGGTAC | -0.0245
29 | CTACTTTA | 0.267
30 | CTCGTGTC | -0.16
31 | TGAGTCAA | 0.00432
32 | AGCCAGCA | -0.152
33 | GCCTCAGC | -0.362
34 | AATTATGC | 0.34
35 | CATCTATA | 0.213
36 | CCGCCCGG | -0.371
37 | GAGCAGTA | 0.0741
38 | GTGTCAAA | 0.146
39 | AAAGGCCG | -0.128
40 | ACGAGACA | -0.114
41 | ATACTTGG | 0.124
42 | GGGGAGTA | -0.087
43 | AATGGGTG | 0.0651
44 | ATCTATGG | -0.0291
45 | CATTCCCG | 0.00248
46 | ACTGTTCT | 0.017
47 | CATTAACC | 0.183
48 | ATCAGTCG | -0.0941

Row | Sequence | PBM 8-mer E-score
49 | CCTACGTC | -0.192
50 | ATGAATTA | 0.295
51 | AAAACCAA | 0.171
52 | ATTCACTC | -0.0267
53 | GACAAAAA | 0.146
54 | CGTTGCGC | -0.0717
55 | GAATACAA | 0.279
56 | AGCGAAAT | 0.0731
57 | GCGAAAGA | -0.0739
58 | ACGCCCTC | -0.263
59 | ATTGGCTC | -0.208
60 | CGAAGGTC | -0.298
61 | ATCGGGGG | -0.333
62 | AATTTAAG | 0.271
63 | AATTCCAG | 0.127
64 | CATCCTCA | -0.183
65 | CAGTGATA | -0.0191
66 | GTACGGGA | -0.0499
67 | AATCTCAC | 0.0724
68 | ACATGTCC | -0.0815
69 | AAAAGCTT | 0.174
70 | CAGTACAA | 0.142
71 | AAGAGAGA | -0.233
72 | GCCGGTAC | -0.198

Row | Sequence | PBM 8-mer E-score
73 | GTATACAA | 0.319
74 | GCGCATCC | -0.285
75 | CCATTGGG | -0.289
76 | GGCAGTAC | -0.0151
77 | ATTTCAAG | 0.163
78 | CACCCCAC | -0.154
79 | CGTTGTTA | 0.127
80 | GAGGCGCC | -0.302
81 | CGAGTACG | -0.0687
82 | CAACTACG | 0.0764
83 | TAGGAAGA | 0.048
84 | AGTGTTGG | 0.00492
85 | AAATATCG | 0.295
86 | CGCTGGGA | -0.245
87 | ACCATCCT | -0.0607
88 | ACCAAGGT | -0.219
89 | TCTGTAAA | -0.0295
90 | CCTACTTA | 0.251
91 | ACAGACAA | 0.189
92 | GCTGGCCA | -0.299
93 | ATCTACAG | 0.0162
94 | CAATGTGA | 0.0419
